We go through one molecule from patent US20220106375A1 (Memorial Sloan Kettering, published 2022).

The assay concerns the target T1, IL-15Rα-Fc fusion polypeptide including the full length extracellular domain of IL-15Rα (human, heterogeneously glycosylated (~60-90 KDa, ~60 KDa after deglycosylation); sites not determined in the examples).
T1 construct: Disulfide-linked dimer through the Fc; also called WT IL-15RαFL-hIgG1 Fc; FL
In words: Protein A-purified co-expressed complex, reducing SDS-PAGE. As to the method:
Biochemical characterization of IL15/IL15Rα-Fc complexes. […] Invitrogen SeeBlue Plus2 Pre-Stained Standard (Carlsbad Calif.), or Life Technologies BenchMark Unstained Protein Ladder was used as the protein molecular weight (MW) marker. After electrophoresis, the gel was stained using Coomassie G-250 (GelCode Blue Stain Reagent; Pierce Biotechnology Inc., Rockford, Ill.). The size and purity of complexes was also evaluated by size-exclusion high-performance liquid chromatography (SE-HPLC). Approximately 20 μg of protein was injected into a TSK-GEL G4000SWXL 7.8 mm×30 cm, 8 μm column (TOSOH Bioscience, Tokyo, Japan) with 0.4 M NaClO₄, 0.05 M NaH₂PO₄, pH 6.0 buffer at flow rate of 0.5 mL/min, and UV detection at 280 nm. Ten microliters of gel-filtration standard (Sigma-Aldrich, St. Louis, Mo.) was analyzed in parallel for MW markers.
Determination of biochemical purity of IL-15/IL-15Rα-Fc complex by SDS-PAGE, and HPLC. To determine the molecular size and biochemical purity of the IL15/IL15Rα-Fc complexes, SDS-PAGE and SEC-HPLC were performed. Under reducing conditions, WT IL-15/IL-15Rα-Fc and MUT IL-15/IL-15Rα-Fc complexes gave rise to two major bands on Tris-glycine SDS-PAGE: ˜60-90 KDa IL-15Rα-Fc and −16 KDa IL-15 (FIG. 18A). […]

B1: N72D mutant IL-15 (MUT) (ligand)
chain: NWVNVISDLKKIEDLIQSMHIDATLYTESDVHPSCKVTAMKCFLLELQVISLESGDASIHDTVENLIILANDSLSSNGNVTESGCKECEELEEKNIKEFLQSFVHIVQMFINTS
modifications: glycosylated; sites not stated
notes: also called IL[…]D; MUT IL-15
As for B1, the binding result was “binds”.
